# The list shows a part of the results.
# B1: PX9961C-bth-497-22-497 (Bacteroides thetaiotaomicron) (protein)
# chain: DWLDLNTTSSVETGQAIVTLDDAQIALNGIYRLASGHSYYGDNYWYYGDCRAADVQARITKGDGKRVSPYYEYNVLASDNLNIVLPWNTVYKVIRQTNNLIQKIESGSIQSSDTKELNRIKSEALVMRGLSLFNLTRLFGMPYTNDKGASLGVPIETSPSDPTHKPSRSTVAQCYEQVVSDMSNALSGLRQETSNGYINYWAAQALLSRVYLNMGEYQKAYDAATDVIKNNGGRYQLYSYEEYPNVWGQDFQSESLFELYITLSEPSGGTGGEGAPMVYANEATVDWNNLILSEDFLNLLNEDPKDVRHCLTKESVIENNTGLPAAAMHEKVYLAKFPGKTGDDPKTNNICIIRLSEVYLNAAEAGLKKGTDIEEAQGYLNDIISRRTTDTSQQVSTETFTLDRILKERRKELVGEGEVFYDYLRNGLAIERKGSWHLETLKASNAQKIEATDLRIALPIPQSEIDANPNIQQNPR
# Columns and labels:
# Assay in all cases: glycan array binding signal (z-score within array); higher = stronger binding
# Details in all cases: glycan notation: IUPAC condensed, linker removed
# Gal3S(b1-4)Glc = molecular target: Gal3S(b1-4)Glc
# Procedure, shortened: (§1)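 Glycan array data were curated from 3228 arrays in the Consortium for Functional Glycomics database and kept only where the protein sequence was available. Glycan names were converted to IUPAC-condensed notation, and columns mapping to the same glycan were averaged. The binding signal is a within-array Z-score, averaged across arrays of the same protein sequence at different concentrations or buffers and across linkers. Negative Z-scores can be read as non-binding.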
# Gal3S(b1-4)Glc6S = molecular target: Gal3S(b1-4)Glc6S
# Procedure, shortened: as §1
# Gal3S(b1-4)GlcNAc = molecular target: Gal3S(b1-4)GlcNAc
# Procedure, shortened: as §1
# [1] = molecular target: Gal3S(b1-4)[Fuc(a1-3)]Glc6S
# Procedure, shortened: as §1
# [2] = molecular target: Gal3S(b1-4)[Fuc(a1-3)]GlcNAc
# Procedure, shortened: as §1
# [3] = molecular target: Gal3S(b1-4)[Fuc(a1-3)]GlcNAc6S
# Procedure, shortened: as §1
# Gal3S4S(b1-4)GlcNAc = molecular target: Gal3S4S(b1-4)GlcNAc
# Procedure, shortened: as §1
# Gal3S6S(b1-4)GlcNAc = molecular target: Gal3S6S(b1-4)GlcNAc
# Procedure, shortened: as §1
# Gal3S6S(b1-4)GlcNAc6S = molecular target: Gal3S6S(b1-4)GlcNAc6S
# Procedure, shortened: as §1
# Gal4S(b1-4)GlcNAc = molecular target: Gal4S(b1-4)GlcNAc
# Procedure, shortened: as §1
# Gal4S6S(b1-4)GlcNAc = molecular target: Gal4S6S(b1-4)GlcNAc
# Procedure, shortened: as §1
# Gal6P(b1-4)GlcNAc = molecular target: Gal6P(b1-4)GlcNAc
# Procedure, shortened: as §1
# Gal6S(b1-3)GlcNAc = molecular target: Gal6S(b1-3)GlcNAc
# Procedure, shortened: as §1
# Gal6S(b1-3)GlcNAc6S = molecular target: Gal6S(b1-3)GlcNAc6S
# Procedure, shortened: as §1
# Gal6S(b1-4)Glc = molecular target: Gal6S(b1-4)Glc
# Procedure, shortened: as §1
# Gal6S(b1-4)Glc6S = molecular target: Gal6S(b1-4)Glc6S
# Procedure, shortened: as §1
# Gal6S(b1-4)GlcNAc = molecular target: Gal6S(b1-4)GlcNAc
# Procedure, shortened: as §1
# Gal6S(b1-4)GlcNAc6S = molecular target: Gal6S(b1-4)GlcNAc6S
# Procedure, shortened: as §1
# GalNAc(a1-3)Gal = molecular target: GalNAc(a1-3)Gal
# Procedure, shortened: as §1
# GalNAc(a1-3)GalNAc = molecular target: GalNAc(a1-3)GalNAc
# Procedure, shortened: as §1
# [4] = molecular target: GalNAc(a1-3)GalNAc(b1-3)Gal(a1-4)Gal(b1-4)Glc
# Procedure, shortened: as §1
# [5] = molecular target: GalNAc(a1-3)GalNAc(b1-3)Gal(a1-4)Gal(b1-4)GlcNAc
# Procedure, shortened: as §1
# GalNAc(b1-3)Gal = molecular target: GalNAc(b1-3)Gal
# Procedure, shortened: as §1
# [6] = molecular target: GalNAc(b1-3)Gal(a1-4)Gal(b1-4)GlcNAc
# Procedure, shortened: as §1
# [7] = molecular target: GalNAc(b1-3)Gal(a1-4)Gal(b1-4)GlcNAc(b1-3)Gal(b1-4)Glc
# Procedure, shortened: as §1
# [8] = molecular target: GalNAc(b1-3)Gal(a1-6)Gal(b1-4)Glc
# Procedure, shortened: as §1
# GalNAc(b1-3)GalNAc = molecular target: GalNAc(b1-3)GalNAc
# Procedure, shortened: as §1
# GalNAc(b1-3)GlcNAc = molecular target: GalNAc(b1-3)GlcNAc
# Procedure, shortened: as §1
# GalNAc(b1-4)Gal(b1-4)Glc = molecular target: GalNAc(b1-4)Gal(b1-4)Glc
# Procedure, shortened: as §1
# GalNAc(b1-4)GlcNAc = molecular target: GalNAc(b1-4)GlcNAc
# Procedure, shortened: as §1
# [9] = molecular target: GalNAc(b1-4)GlcNAc(b1-2)Man
# Procedure, shortened: as §1
# [10] = molecular target: GalNAc(b1-4)GlcNAc(b1-2)Man(a1-3)[GalNAc(b1-4)GlcNAc(b1-2)Man(a1-6)]Man(b1-4)GlcNAc(b1-4)GlcNAc
# Procedure, shortened: as §1
# [11] = molecular target: GalNAc(b1-4)GlcNAc(b1-3)GalNAc(b1-4)GlcNAc
# Procedure, shortened: as §1
# GalNAc(b1-4)GlcNAc6S = molecular target: GalNAc(b1-4)GlcNAc6S
# Procedure, shortened: as §1
# GalNAc(b1-6)GalNAc = molecular target: GalNAc(b1-6)GalNAc
# Procedure, shortened: as §1
# GalNAc3S(b1-4)GlcNAc = molecular target: GalNAc3S(b1-4)GlcNAc
# Procedure, shortened: as §1
# GalNAc3S(b1-4)GlcNAc3S = molecular target: GalNAc3S(b1-4)GlcNAc3S
# Procedure, shortened: as §1
binder,measurement,setting,value
B1,glycan array binding signal (z-score),Gal3S(b1-4)Glc,0.382
same,glycan array binding signal (z-score),Gal3S(b1-4)Glc6S,-0.122
same,glycan array binding signal (z-score),Gal3S(b1-4)GlcNAc,0.028
same,glycan array binding signal (z-score),[1],-0.229
same,glycan array binding signal (z-score),[2],-0.359
same,glycan array binding signal (z-score),[3],-0.049
same,glycan array binding signal (z-score),Gal3S4S(b1-4)GlcNAc,0.105
same,glycan array binding signal (z-score),Gal3S6S(b1-4)GlcNAc,0.207
same,glycan array binding signal (z-score),Gal3S6S(b1-4)GlcNAc6S,0.079
same,glycan array binding signal (z-score),Gal4S(b1-4)GlcNAc,-0.154
same,glycan array binding signal (z-score),Gal4S6S(b1-4)GlcNAc,-0.267
same,glycan array binding signal (z-score),Gal6P(b1-4)GlcNAc,0.201
same,glycan array binding signal (z-score),Gal6S(b1-3)GlcNAc,0.546
same,glycan array binding signal (z-score),Gal6S(b1-3)GlcNAc6S,1.26
same,glycan array binding signal (z-score),Gal6S(b1-4)Glc,0.077
same,glycan array binding signal (z-score),Gal6S(b1-4)Glc6S,1.16
same,glycan array binding signal (z-score),Gal6S(b1-4)GlcNAc,-0.23
same,glycan array binding signal (z-score),Gal6S(b1-4)GlcNAc6S,-0.411
same,glycan array binding signal (z-score),GalNAc(a1-3)Gal,0.352
same,glycan array binding signal (z-score),GalNAc(a1-3)GalNAc,-0.493
same,glycan array binding signal (z-score),[4],-0.378
same,glycan array binding signal (z-score),[5],-0.464
same,glycan array binding signal (z-score),GalNAc(b1-3)Gal,0.809
same,glycan array binding signal (z-score),[6],-0.274
same,glycan array binding signal (z-score),[7],-0.358
same,glycan array binding signal (z-score),[8],-0.255
same,glycan array binding signal (z-score),GalNAc(b1-3)GalNAc,-0.397
same,glycan array binding signal (z-score),GalNAc(b1-3)GlcNAc,-0.131
same,glycan array binding signal (z-score),GalNAc(b1-4)Gal(b1-4)Glc,-0.534
same,glycan array binding signal (z-score),GalNAc(b1-4)GlcNAc,0.187
same,glycan array binding signal (z-score),[9],-0.92
same,glycan array binding signal (z-score),[10],1.18
same,glycan array binding signal (z-score),[11],-0.536
same,glycan array binding signal (z-score),GalNAc(b1-4)GlcNAc6S,0.926
same,glycan array binding signal (z-score),GalNAc(b1-6)GalNAc,-0.455
same,glycan array binding signal (z-score),GalNAc3S(b1-4)GlcNAc,-0.244
same,glycan array binding signal (z-score),GalNAc3S(b1-4)GlcNAc3S,0.433

# Reference: the supplement of paper PMC8728848
